Source: the supplement of paper PMC9046079
± gives the standard deviation of the averaged measurements. The list shows a part of the results.

Key:
[1] = tested on: murine small intestinal organoids (ENR+CD Paneth differentiation); assay: cellular ATP (CellTiter-Glo 3D) relative to plate median (log10 fold change); higher = more viable cells; conditions: 6 d
[2] = tested on: murine small intestinal organoids (ENR+CD Paneth differentiation); assay: carbachol-stimulated secreted lysozyme activity relative to plate median (log10 fold change); higher = more Paneth cell lysozyme secretion; conditions: 6 d, carbachol 10 µM
[3] = tested on: murine small intestinal organoids (ENR+CD Paneth differentiation); assay: basal (non-stimulated) secreted lysozyme activity relative to plate median (log10 fold change); higher = more Paneth cell lysozyme secretion; conditions: 6 d
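Wherever basal (non-stimulated) secreted lysozyme activity relative to plate median is given: ISC-enriched organoid precursors grown as 2.5D pseudo-monolayer on Matrigel, compound given on day 0 and day 3, plate values LOESS-normalized before median fold change, three murine donors.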
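Wherever cellular ATP (CellTiter-Glo 3D) relative to plate median is given: 2.5D pseudo-monolayer culture of ISC-enriched organoids partly embedded atop Matrigel, compound added on day 0 and again on day 3, per-plate LOESS correction before median fold change.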

Row | Compound | cellular ATP (log10) ([1]; 0.08 µM) | cellular ATP (log10) ([1]; 0.4 µM) | cellular ATP (log10) ([1]; 2 µM) | cellular ATP (log10) ([1]; 10 µM) | carbachol-stimulated secreted lysozyme activity (log10) ([2]; 0.08 µM) | carbachol-stimulated secreted lysozyme activity (log10) ([2]; 0.4 µM) | carbachol-stimulated secreted lysozyme activity (log10) ([2]; 2 µM) | carbachol-stimulated secreted lysozyme activity (log10) ([2]; 10 µM) | basal (log10) ([3]; 0.08 µM) | basal (log10) ([3]; 0.4 µM) | basal (log10) ([3]; 2 µM) | basal (log10) ([3]; 10 µM)
1 | CC1=C(/C=C/C(C)=C/C=C/C(C)=C\C(=O)O)C(C)(C)CCC1 [Isotretinoin] | 0.411 ± 0.19 | 0.404 ± 0.26 | 0.253 ± 0.15 | 0.139 ± 0.3 | 0.136 ± 0.058 | 0.0825 ± 0.095 | 0.081 ± 0.0075 | 0.0859 ± 0.082 | 0.125 ± 0.11 | 0.0467 ± 0.092 | 0.0664 ± 0.1 | 0.0824 ± 0.059
2 | CC(C)c1onc(-c2c(Cl)cccc2Cl)c1COc1ccc(/C=C/c2cccc(C(=O)O)c2)c(Cl)c1 | -0.134 ± 0.095 | 0.14 ± 0.083 | -0.145 ± 0.23 | -0.157 ± 0.095 | 0.0217 ± 0.12 | 0.141 ± 0.089 | 0.0435 ± 0.059 | -0.06 ± 0.071 | 0.17 ± 0.18 | -0.0223 ± 0.018 | 0.0225 ± 0.076 | -0.0593 ± 0.042
3 | O=c1cc(N2CCOCC2)oc2c1ccc1ccccc12 | 0.0963 ± 0.082 | 0.104 ± 0.13 | 0.107 ± 0.11 | -0.119 ± 0.37 | -0.0332 ± 0.13 | -0.0585 ± 0.057 | -0.117 ± 0.18 | -0.195 ± 0.043 | 0.0228 ± 0.087 | 0.0228 ± 0.12 | -0.0582 ± 0.12 | -0.158 ± 0.019
4 | CCc1nc(N)nc(N)c1-c1ccc(Cl)cc1 [Pyrimethamine] | -0.266 ± 0.49 | -0.0426 ± 0.33 | -0.118 ± 0.5 | -0.487 ± 0.19 | -0.159 ± 0.33 | 0.0929 ± 0.2 | 0.0343 ± 0.19 | -0.113 ± 0.24 | -0.0683 ± 0.14 | 0.0203 ± 0.1 | -0.0678 ± 0.087 | -0.0758 ± 0.076
5 | O=C(Nc1cccnc1)N1CCC(Cc2cccc(Oc3ccc(C(F)(F)F)cn3)c2)CC1 | -0.0468 ± 0.26 | 0.0524 ± 0.19 | -0.103 ± 0.075 | -0.286 ± 0.12 | -0.0289 ± 0.15 | -0.0825 ± 0.017 | -0.068 ± 0.03 | -0.195 ± 0.12 | 0.0611 ± 0.033 | -0.0767 ± 0.0077 | -0.015 ± 0.019 | -0.131 ± 0.056
6 | COC1CCN(C(=O)c2cc(Cc3n[nH]c(=O)c4ccccc34)ccc2F)CC1 | 0.0728 ± 0.15 | -0.0398 ± 0.38 | -0.232 ± 0.15 | -0.336 ± 0.12 | 0.115 ± 0.19 | -0.0446 ± 0.27 | -0.129 ± 0.14 | -0.254 ± 0.21 | 0.0384 ± 0.11 | -0.0375 ± 0.1 | -0.0736 ± 0.078 | -0.172 ± 0.084
7 | CC(C)c1c(C(=O)Nc2ccccc2)c(-c2ccccc2)c(-c2ccc(F)cc2)n1CC[C@@H](O)C[C@@H](O)CC(=O)O [Atorvastatin Calcium] | -0.129 ± 0.17 | -0.348 ± 0.16 | -1.08 ± 0.53 | -1.58 ± 0.47 | 0.0404 ± 0.013 | -0.0424 ± 0.08 | -0.431 ± 0.035 | -0.388 ± 0.017 | -0.00885 ± 0.064 | 0.00713 ± 0.14 | -0.247 ± 0.12 | -0.235 ± 0.12
8 | Cc1c(Cc2ccc3ccccc3n2)c2cc(F)ccc2n1CC(=O)O | 0.077 ± 0.14 | -0.0647 ± 0.2 | 0.0878 ± 0.2 | 0.0885 ± 0.12 | 0.0416 ± 0.015 | 0.215 ± 0.21 | 0.136 ± 0.067 | 0.0606 ± 0.098 | 0.0477 ± 0.045 | 0.0529 ± 0.038 | 0.0583 ± 0.023 | 0.033 ± 0.053
9 | CCc1c2c(nc3ccc(OC(=O)N4CCC(N5CCCCC5)CC4)cc13)-c1cc3c(c(=O)n1C2)COC(=O)[C@]3(O)CC [Irinotecan] | -0.111 ± 0.1 | -0.784 ± 0.34 | -0.785 ± 0.36 | -1.24 ± 0.29 | -0.0596 ± 0.1 | -0.178 ± 0.15 | -0.297 ± 0.059 | -0.325 ± 0.007 | -0.0313 ± 0.086 | -0.0724 ± 0.07 | -0.17 ± 0.058 | -0.163 ± 0.09
10 | Cc1cn(-c2cc(NC(=O)c3ccc(C)c(Nc4nccc(-c5cccnc5)n4)c3)cc(C(F)(F)F)c2)cn1 [Nilotinib (AMN-107)] | 0.322 ± 0.12 | 0.348 ± 0.075 | 0.242 ± 0.059 | -0.012 ± 0.22 | 0.215 ± 0.038 | 0.27 ± 0.0072 | 0.0302 ± 0.13 | -0.202 ± 0.13 | 0.196 ± 0.021 | 0.162 ± 0.072 | 0.0852 ± 0.062 | -0.0925 ± 0.029
11 | C[C@H](N[C@@H](CCc1ccccc1)C(=O)O)C(=O)N1CCC[C@H]1C(=O)O [Enalaprilat Dihydrate] | -0.19 ± 0.18 | -0.124 ± 0.21 | -0.331 ± 0.29 | -0.979 ± 0.82 | 0.0433 ± 0.059 | 0.17 ± 0.21 | -0.112 ± 0.14 | -0.382 ± 0.1 | 0.00306 ± 0.052 | -0.00345 ± 0.06 | -0.0224 ± 0.072 | -0.157 ± 0.14
12 | Cc1ccc(S(=O)(=O)NC(=O)NN2CC3CCCC3C2)cc1 (stereo unspecified) [Gliclazide] | 0.162 ± 0.15 | 0.0538 ± 0.12 | 0.00829 ± 0.24 | -0.0917 ± 0.17 | 0.0591 ± 0.011 | 0.125 ± 0.15 | -0.0676 ± 0.12 | -0.0332 ± 0.17 | 0.036 ± 0.016 | 0.0319 ± 0.1 | 0.104 ± 0.3 | -0.0348 ± 0.081
13 | CNC(=O)c1cc(Oc2ccc(NC(=O)Nc3cc(C(C)(C)C)nn3-c3ccc4ncccc4c3)c(F)c2)ccn1 [DCC-2036 (Rebastinib)] | 0.216 ± 0.31 | 0.218 ± 0.19 | -0.0381 ± 0.39 | -0.322 ± 0.27 | 0.415 ± 0.062 | 0.204 ± 0.026 | 0.0792 ± 0.13 | -0.283 ± 0.066 | 0.259 ± 0.065 | 0.128 ± 0.02 | 0.0731 ± 0.089 | -0.209 ± 0.13
14 | C[C@]12CC[C@@H]3c4ccc(O)cc4C[C@@H](CCCCCCCCC[S+]([O-])CCCC(F)(F)C(F)(F)F)[C@H]3[C@@H]1CC[C@@H]2O (stereo partly specified) [Fulvestrant] | 0.119 ± 0.21 | -0.0627 ± 0.59 | 0.142 ± 0.19 | -0.204 ± 0.094 | 0.00457 ± 0.16 | -0.0845 ± 0.26 | -0.0537 ± 0.076 | -0.227 ± 0.023 | 0.0574 ± 0.07 | -0.0496 ± 0.12 | 0.00035 ± 0.068 | -0.0431 ± 0.044
15 | CC#CCn1c(N2CCC[C@@H](N)C2)nc2c1c(=O)n(Cc1nc(C)c3ccccc3n1)c(=O)n2C [Linagliptin] | 0.163 ± 0.38 | 0.209 ± 0.17 | 0.0228 ± 0.33 | -0.0112 ± 0.28 | 0.0907 ± 0.059 | -0.0346 ± 0.0029 | -0.13 ± 0.008 | 0.0562 ± 0.033 | 0.208 ± 0.14 | 0.0549 ± 0.12 | 0.021 ± 0.12 | 0.0798 ± 0.057
16 | O=C(NC(Cc1cc(=O)[nH]c2ccccc12)C(=O)O)c1ccc(Cl)cc1 (stereo unspecified) [Rebamipide] | -0.19 ± 0.29 | -0.598 ± 0.37 | -0.249 ± 0.13 | -0.343 ± 0.26 | -0.0667 ± 0.063 | -0.0661 ± 0.27 | 0.0951 ± 0.54 | -0.026 ± 0.15 | -0.0521 ± 0.054 | -0.0352 ± 0.12 | -0.0847 ± 0.078 | -0.0587 ± 0.074
17 | CCc1cncnc1N1CCN(Cc2nc3ccc(C(F)(F)F)cc3[nH]2)CC1 | 0.261 ± 0.04 | 0.268 ± 0.13 | 0.302 ± 0.04 | -0.321 ± 0.22 | 0.144 ± 0.049 | 0.178 ± 0.24 | 0.239 ± 0.013 | -0.00164 ± 0.18 | 0.0751 ± 0.057 | 0.122 ± 0.14 | 0.198 ± 0.038 | 0.0341 ± 0.11
18 | Nc1nc(CC(=O)Nc2ccc(CCNC[C@H](O)c3ccccc3)cc2)cs1 [Mirabegron] | 0.029 ± 0.087 | -0.335 ± 0.67 | 0.0194 ± 0.081 | -0.0515 ± 0.17 | 0.116 ± 0.1 | 0.0385 ± 0.015 | -0.0472 ± 0.045 | 0.0311 ± 0.0096 | 0.138 ± 0.074 | -0.0298 ± 0.037 | -0.0345 ± 0.023 | 0.0221 ± 0.14
19 | CCC(CC)(NC(=O)C(C)C)C(=O)N[C@@H](CCCN=C(N)N)C(=O)NC1(C(=O)NC(c2ccc(F)cc2)c2ccc(F)cc2)CCCC1 | -0.205 ± 0.26 | -0.132 ± 0.029 | -0.233 ± 0.018 | -0.403 ± 0.11 | -0.00619 ± 0.14 | 0.0142 ± 0.0049 | 0.000103 ± 0.065 | -0.198 ± 0.2 | -0.0252 ± 0.04 | -0.0104 ± 0.062 | 0.0264 ± 0.15 | -0.164 ± 0.15
20 | CC(C)C[C@H](NC(=O)[C@H](Cc1ccccc1)NC(=O)c1cnccn1)B(O)O [Bortezomib (PS-341)] | -1.904 ± 0.015 | -2.15 ± 1.3 | -0.915 ± 0.6 | -1.36 ± 0.98 | -0.299 ± 0.048 | -0.224 ± 0.1 | -0.304 ± 0.0052 | -0.289 ± 0.1 | -0.148 ± 0.061 | -0.105 ± 0.064 | -0.133 ± 0.056 | -0.153 ± 0.045
21 | O=C(NOCC1CC1)c1ccc(F)c(F)c1Nc1ccc(I)cc1Cl | 0.366 ± 0.43 | 0.261 ± 0.49 | -0.212 ± 0.33 | -0.796 ± 0.57 | -0.0299 ± 0.019 | -0.0362 ± 0.1 | -0.2126 ± 0.00042 | -0.296 ± 0.13 | -0.0186 ± 0.0075 | -0.0526 ± 0.033 | -0.135 ± 0.048 | -0.116 ± 0.075
22 | Nc1nc(N)c2nc(-c3ccccc3)c(N)nc2n1 [Triamterene] | -0.227 ± 0.52 | 0.201 ± 0.21 | -0.415 ± 0.55 | -0.826 ± 0.69 | -0.166 ± 0.17 | 0.00531 ± 0.11 | -0.228 ± 0.14 | -0.307 ± 0.081 | 0.0133 ± 0.17 | 0.0458 ± 0.044 | -0.106 ± 0.14 | -0.172 ± 0.05
23 | C[C@H]1COC2=C1C(=O)C(=O)c1c2ccc2c1CCCC2(C)C [Cryptotanshinone] | 0.199 ± 0.15 | -0.0273 ± 0.49 | -0.184 ± 0.23 | -0.541 ± 0.047 | 0.169 ± 0.094 | -0.19 ± 0.4 | -0.4751 ± 0.0023 | -0.495 ± 0.048 | 0.143 ± 0.065 | -0.12 ± 0.25 | -0.182 ± 0.27 | -0.288 ± 0.11
